Screen size: about 340,000 compounds; about 6,900 (2%) were called active. Rule as the data show it: active = inhibition above about 30%; inactive = below that, where a call was filed. This is a selection; strong and weak results do not stand in their true shares. Where no call is shown, the source filed none.

A word on the inhibition: it is the relative decrease from the control value, in per cent.

Sequence of UniProt P14416 (P14416 whole entry, looked up): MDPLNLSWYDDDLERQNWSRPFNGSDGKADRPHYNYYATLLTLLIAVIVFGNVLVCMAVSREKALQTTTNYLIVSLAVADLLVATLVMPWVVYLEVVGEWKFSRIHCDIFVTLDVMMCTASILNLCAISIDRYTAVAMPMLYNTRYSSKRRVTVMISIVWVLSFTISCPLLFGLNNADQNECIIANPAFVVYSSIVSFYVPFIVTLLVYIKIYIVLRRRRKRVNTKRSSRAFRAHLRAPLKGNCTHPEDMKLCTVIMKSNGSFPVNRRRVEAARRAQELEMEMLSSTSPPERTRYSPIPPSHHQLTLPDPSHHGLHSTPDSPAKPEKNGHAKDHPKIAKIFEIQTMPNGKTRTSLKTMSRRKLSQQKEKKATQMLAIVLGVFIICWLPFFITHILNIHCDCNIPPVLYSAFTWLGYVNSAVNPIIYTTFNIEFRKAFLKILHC

The target of the test is D(2) dopamine receptor (Homo sapiens) (UniProt P14416). Nature of the test: HTS Assay for Allosteric Antagonists of the Human D2 Dopamine Receptor: Primary Screen for Antagonists. Also: 0% is about no effect. Conditions: HEK293 TREx D2 cells, calcium flux, dopamine EC80; at 10 µM; stronger effect = higher value. An outline of the steps:
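Overnight-induced (tetracycline, 30 C) HEK293 T-REx cells carrying force-coupled D2 receive a no-wash calcium dye, then compound, then EC80 dopamine at 180 s; signals are read kinetically throughout.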
On the technique in general: A change in cytosolic calcium serves as a functional read-out for many receptors and channels.
As for `COc1cc(O)c(C(CCN2CCN(c3ccccc3)CC2)c2cc(OC)c(OC)c(OC)c2)c(OC)c1` (stereo not given), the inhibition was active: 67.1%.

Take `COc1ccccc1C1C(C(=O)N2CCCCC2)=C(C)Nc2nc3ccccc3n21` (stereo not given): the inhibition is -3.7%. As for `CCOC(=O)c1nnn(C(CC)C(=O)Nc2ccc(F)cc2)c1C(=O)OCC` (stereo not given), the inhibition amounted to 17.7%. With `O=C(NCC1CCOCC1)c1ccc2nc(Cc3cccc(Cl)c3)oc2c1` the figure was active: 61.1%; with `COc1ccc2c(c1)-c1nc(NC(=O)c3cccc(Br)c3)sc1CC2`, 12.9%; with `Cc1ccc(Nc2c3c(nc4nncn24)CCC3)c(C)c1`, 16.3%. As to `Cc1ccc(NC(=O)CN2C(=O)c3cccnc3Sc3ccccc32)c(Br)c1`, the inhibition is -3.13%. With `Cc1ccc(NC(=O)Cn2nnc(-c3ccccc3)n2)c(C)c1` the figure was -11.8%. The result for `CCOC(=O)c1c(NC(=O)c2cc(-c3cccc(Cl)c3)on2)sc(C(C)=O)c1C` reads -19.8%; that for `O=C(C1COc2ccccc2O1)N(Cc1cccnc1)c1nc2c(F)cccc2s1` (stereo not given), 25.2%; that for `CC1CCN(S(=O)(=O)c2cc(C(=O)N3CCN(c4cccc(Cl)c4)CC3)n(C)c2)CC1`, -2.17%. Turning to `O=C(c1ccc(N2C(=O)CCC2=O)cc1)N1CCOCC1`, the inhibition is active: 53.1%. For `Cc1cc(C)c2c(=O)cc(C(=O)Nc3sc4c(c3C(=O)NCc3ccco3)CCCC4)oc2c1`, the inhibition is -24.1%. The result for `Cc1cccc(OCC(=O)N2CCC(c3nc4ccccc4o3)CC2)c1C` reads 6.37%.

For the compound `COCCNC(=S)N(CCc1c(C)[nH]c2ccc(C)cc12)Cc1cc(OC)c(OC)c(OC)c1`, the inhibition is active: 31.3%. The result for `COc1ccc(NC(=O)Cn2c(=O)c3ccccc3n3nncc23)cc1Cl` reads -20.7%; that for `CN(c1nnc(NC(=O)Nc2ccccc2C(F)(F)F)s1)C1CCCCC1`, 9.54%; that for `COCc1cc(C)nc2c1C(=O)NC(c1ccc(NC(C)=O)cc1)N2Cc1ccccc1` (stereo not given), 5.68%.

For the compound `CC(=O)c1ccc(NC(=O)c2nc(-c3ccc(Cl)cc3)n3c2CCCCC3)cc1`, the inhibition is -19%. Turning to `COc1cccc(OCC(=O)NC2CC(=O)N(c3cccc(OC)c3)C2)c1` (stereo not given), the inhibition was -5.39%. The result for `COC(=O)c1cc(NC(=O)CC2C(=O)OCCN2Cc2ccccc2)cc(C(=O)OC)c1` (stereo not given) reads -7.69%; that for `Cc1ccccc1CSc1nc2c(sc3ccccc32)c(=O)n1CCCC(=O)NCCCOC(C)C`, -1.97%; that for `CCOc1nc(-c2ccccc2)ccc1-c1noc(-c2ccc(C)cc2)n1`, 14.1%. With `O=C(Cn1cc(SCc2cccc(Cl)c2)c2ccccc21)N1CCCCC1` the figure was -3.05%; with `CCOc1ccc(NC(=O)CC2C(=O)N(c3ccccc3)C(=O)N2CCc2sccc2C)cc1` (stereo not given), 9.42%. The result for `Cc1c(C(=O)OC2CCC(C)CC2)[nH]c2c1C(=O)CC(c1ccc(N(C)C)cc1)C2` (stereo not given) reads 5.27%. For the compound `COc1ccc(S(=O)(=O)c2c(C(=O)c3ccc(C)c(C)c3)cnc3ccc(C)cc23)cc1`, the inhibition was -2.31%. In the case of `COc1ccc(C)cc1NC(=O)NCCC1=CCCCC1`, the inhibition was active: 85.8%. For `COc1ccc(/C=C/c2nc(C#N)c(NCc3ccc(C)cc3)o2)cc1OC`, the inhibition is -1.38%. With `Cc1c2cnn(CC(=O)NC(C)C)c(=O)c2c(C)n1Cc1cccc(Cl)c1`, the inhibition is -2.54%.

With `Cc1ccc(NC(=O)N2CCC3(CC2)Oc2ccccc2C(=O)N3Cc2ccc(F)cc2)cc1`, the inhibition came to 1.92%. For the compound `CCNC(=O)c1ccc2c(c1)sc1nc(-c3cccc(OC)c3)cn12`, the inhibition was -11.8%. In the case of `COc1ccc2c(c1OC)C(=O)N1c3ccccc3C(=O)N(c3ccc(F)cc3)C21` (stereo not given), the inhibition is active: 40.6%. With `Cc1cc(C)c2oc(C(=O)Nc3ccc(S(=O)(=O)Nc4ncccn4)cc3)cc(=O)c2c1` the figure was 1.63%. In the case of `O=C(CCCn1ncn2c(cc3occc32)c1=O)NCc1ccccc1F`, the inhibition is -0.992%. With `Cc1cc2c(cc1S(=O)(=O)C(C)CC(=O)NC1CCC(C)CC1)OCC(=O)N2` (stereo not given) the figure was -2.3%; with `O=C(Nc1ccccc1C(F)(F)F)c1cc2nc(-c3ccccc3)cc(-c3ccccc3)n2n1`, -0.962%. As to `COc1ccccc1NC(=O)c1sc(-c2ccc(Cl)cc2)cc1N`, the inhibition was -26.4%. The result for `CCc1ccc2c(c1)NC(c1ccc(F)cc1)=NC(c1ccncc1)=N2` reads 8.43%. The result for `COc1ccc2c(c1)c(CC(=O)Nc1cc(C)cc(C)c1)c(C)n2C(=O)c1ccc(Cl)cc1` reads 7.13%.

Source of the values: PubChem BioAssay AID485344 (National Center for Advancing Translational Sciences (NCATS), 2010).
